This note sets out measurements from the supplement of paper PMC12632987.

Sequences and labels used below:
B1: GBRAP_128_3516 (protein)
chain: STAAAVARVRALMAAIAAASPAEAAALTREVAALLAAADPATREAMVDEFIALLPRLSREHLETVADTLRALRPAADPDLANLLAEVEVEALNEALEKEE
B2: GBRAP_26_5483 (protein)
chain: REREILDELEAKVKAILADEPAEVRAAVVAEAIDALIEFAEVVEANINDEEKIEKAKKEALEEMRKFLEDLGIPEDKREKVVKALAEALEKVEKAIKEEA
B3: GBRAP_95_7027 (protein)
chain: EDDELAYETDVEVLETYVELGDEERAREAARRAVETAKKLGWPKPPESISLEAAKLLVEEAVRYYTEEDAKKLTEAILSVIKNEEDKKEILEHLEKLLKE
B4: GBRAP_64_6479 (protein)
chain: NEEIEELLEELLEAARRLLALFERENPELAPEAQEIVDLLEEAKTASLEERLDLVLEVTDRLHALLRDPRVTPEQRDALLEALDLAMALAALLAEEVEKE
B5: GBRAP_177_5014 (protein)
chain: LTLEELRALIADPNTTAKEAFEALKEAAPAITAEEALELLAEIVRTKPLDEEAYKAAAEAILTLSRVQGLTLAEAVGYLIEHVEAEKVEKILEAIAEVEE
B6: GBRAP_83_6899 (protein)
chain: KEEIAIATPADKIEEAVDAAIDLSKEEGYEVSLEILATKEELEKVKKGVERLAKAKIETEVTIYLYGATKEEAEELEKELKEIAKKYGANIKIEVILIEP
B7: GBRAP_128_3340 (protein)
chain: INEEKLKKVEKLVKEMIKADKEEAKKLAKELMELLVELSLEEVEKAAEIIKKYLPKLSAEHLEILADELREYRPKFSPEKALIVADLEVEALNEAVEKEE
B8: GBRAP_95_7060 (protein)
chain: DEDKEILLAILDTAVDLAEAGFDDQAARAIAAAADLLLELGGPEIDLDVDPETALRLARLAAETLDAERAQAVVDLLGRATGDPATAAEMRAILAAAQAK
B9: GBRAP_137_3636 (protein)
chain: PNVTITTKTEDDLVEINIEFDDPELAEEVAELIEDVAHKHGALALSIEINEDGTLDATIWVPKEKAQALLDALIKALKEKFNATVTVIDEDTGEVKTIKA
B10: GBRAP_95_7031 (protein)
chain: DDDELAAESLVEVLETYIDLGEEEKAREAARRLVLHMKESGFPKLPKGISLEAAKLIVEEAIRLLNKEDAEKLFEVVLESIEKEEDKEEVKKYYEEELKK
B11: GBRAP_55_6436 (protein)
chain: SEDEELDKEASESMMEVAAGLVEDPEAMERIIKRMAKELEGKKIYITAEALSLLETDEEKEAFLTAVVKAAKENKKIKGIELIDVSEEDKELLEKAKKEV
B12: GBRAP_128_3328 (protein)
chain: MNEERIEEAFELIEKIVKADVETAKELTRELAKLMQTLTPEERDIVVEKFEEEAKKLDAEKLDAIADTLEELQPELDPETALYANEMRVEALNLAVEKEE
B13: GBRAP_125_3089 (protein)
chain: SMEELKEALKLLALALGFSEEDAEEAAEIAANSSVKGTLYAIFKAEGWEELADLVEKLTEEQAKEVLKELAKKIKENPDLTKEEVIEEAKKLIKEALAKA
B14: GBRAP_95_7070 (protein)
chain: SEEQEIADALADTLALYLEAGLLDEAARLLVDLAEEAKENPDLKVEFPATPEELRRGLEHLAEIRPREEAIEVAEILAKHAADPEHRRALEETAERFRAE
B15: GBRAP_11_2761 (protein)
chain: KKEKLLRLAELAEEAAELVDELLKEGVDNEELLKKLEEKLKELREETLKINDEALIKDVEIAEELFKKLLEDPENAEEYAKELRAQLRVLSGDYLLEAEE
B16: GBRAP_160_4486 (protein)
chain: MEKVEEAKKEVRELIELAVEAIKESPPEQKLPIARAYAGEIAMTVYEHGLVDDEEFEELLELAERKMREMVEASERGPEELEREAERLREEIERFIEEKS
B17: GBRAP_184_5204 (protein)
chain: EVKEFTIEFENKEELKEKLEKLKEEVKGFKGDLYIHIIAKEITKEMAELILETLKELKEKGWVKSITVLIEGKVSEEVLDLLLEKSKEIGVKVVIALEEE
B18: GBRAP_117_2604 (protein)
chain: MSKLEKAKELAKKLVELIRESLELEKELSEEERKKLREKTLKEATKIVKEMLKLVDVDTLEELIAEAMKDLTPEERVKAYILYEEALAEALEERKEEEEE
B19: GBRAP_160_4191 (protein)
chain: MEEVEKLIKEIKEIAEEAIELIEGQSYEERLVIVEGAFGQIIMLVMESDVVSDEAEEKIAEIADEAVEYLRANPELTEEEIKELIKKATEEIIEVIKKYS
B20: GBRAP_150_3897 (protein)
chain: NLEEIEIIADSTADILDLMIDSGKYNVATLKTYLKAVKEEAKEADEEIKKKLKEVADAIAKLIALIEAGADPAEIKAAAKEAADLAKELAEYTEKKIEEE
B21: GBRAP_11_2723 (protein)
chain: KKKVLEELAKKAEKLAEKLEKLIKEGPTKEELEKLLKEAEALAEEAKKAGVPESVVETLKEAAELIKKAIKDPKTQKEYLKEALAALKVAAGQLLLEAEE
B22: GBRAP_52_6147 (protein)
chain: MKEEAKKIADEMIEIAKNGTEEELEKYAEEVVKTKSLELLKEIAAVLGEKSVESDEEMSEIYEKVIEVLAKAAEKAGYEDAEVDDILAAFARAAVEAEQK
B23: GBRAP_128_3587 (protein)
chain: SVEEVRERTRALMAAMTKADAATAAALARELAEEFTTLSLEEARAAAEVILEELPKLTAEHLDILADALRAALPRMSPEKANLAADVEVAALNQAEEKEE
B24: GBRAP_184_5302 (protein)
chain: AVEEVVIEADTAEAAIAALRAAAARARAAGVKLRVTLFLKNVSVEGFRRVMALLRELREQGVVESATVVLENDKSEEEIDEFVELADEAGVRLVIALPDE
B25: GBRAP_11_2651 (protein)
chain: EKEKLKKGAELARDAAATADALIAEGTDNAALQAELTAKLNELAELVKKHASPALKSDVDVAVELWKEFLADPANATAYAQELRAALRVLEGDFLLEIEE
B26: GBRAP_160_4104 (protein)
chain: AAGLAALEADFQAVFDEVLALYDEISKEELVNFYDVELSAVILEARDELGLSDETVDALLAVRDEAAEELKANYDKSREEIKAILDAALARMRAVLAAHA
B27: GBRAP_95_7026 (protein)
chain: EDDQLLVDSLTEVLETYVDLGDEERAREAARRLVRALRENGILPLPKSISVEAAKLILEVALEELDLEELEALAKQLIEATKDEEVRKYAEAKIAEKRAR
B28: GBRAP_83_6882 (protein)
chain: KEEIVVAGPSDRVEELVEIAIDLHKNEGYDVTIEILVTREGIEAVLEAVKRLAEEGVDTEVIVVGKGLSKEEMEKLKKEMEEIAKKYGSNIKIEVLLDEP
B29: GBRAP_39_5643 (protein)
chain: EEEEENELIFSYLEAVGAKYQYEKGLSDEEMKEKTLELLDKAKKELPEIKELLEELKKLVEEGDESVVVAAYGVLLLYEEGTPEEEVKEHIEKLINYLKS

The full ranking holds about 4,500 sequences; the median of “median log2 fold change of GCK-ALFA target abundance (FLAG IP / Myc IP barcode read proportion)” is about 0.078, and the lowest 2% start at about -0.6. The list shows a part of the results.

The target of this assay is GABARAP, O95166. As to the kind of experiment: median log2 fold change of GCK-ALFA target abundance (FLAG IP / Myc IP barcode read proportion) (log2 ratio); each designed protein is fused to an ALFA-tag nanobody in HEK293 cells to bring the named protein to FLAG-tagged glucokinase (GCK); Myc marks an untargeted standard; higher = target protein stabilised (more abundant). As to conditions: target protein: 3xFLAG-MCP-GCK-ALFA reporter; HEK293 landing pad (RPLP). An outline of the steps: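 An ALFA-nanobody-fused binder library was recombined into HEK293 landing-pad cells and induced with 2 μg mL^−1 doxycycline. Cells were transfected with a plasmid expressing a FLAG-tagged target and a Myc-tagged standard. After 48 h, lysates underwent anti-FLAG and anti-Myc immunoprecipitation, and circular RNA barcodes were reverse transcribed, amplified and sequenced. Target abundance is the per-binder median log2 ratio of FLAG to Myc barcode read proportions. Barcodes needed ≥10^−7 proportion in both replicates, binders ≥3 barcodes per replicate, and a 10^−6 pseudocount was added; the two replicates were pooled.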
GABARAP, O95166, sequence (O95166 whole entry, the tested form may be a part): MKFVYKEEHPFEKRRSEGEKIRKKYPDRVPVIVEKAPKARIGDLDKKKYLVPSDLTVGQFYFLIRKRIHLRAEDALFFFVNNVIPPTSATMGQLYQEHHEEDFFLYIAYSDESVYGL
For B1, the “median log2 fold change” value is -0.179.

Consider B2, for which the “median log2 fold change” value stood at 0.341. In the case of B3, the “median log2 fold change” value is 0.172. Then B4, with -0.254; and B5, with 0.228.

For the molecule B6, the “median log2 fold change” value is 0.286. As for B7, the figure is 0.296; as for B8, -0.249; as for B9, -0.117. As for B10, the figure is 0.163; as for B11, -0.0267.

For the molecule B12, the “median log2 fold change” value was -0.103. As for B13, the figure is 0.285; as for B14, 0.0679. Regarding B15, the “median log2 fold change” value came out at 0.0293. As for B16, the figure is 0.0876; as for B17, 0.0318; as for B18, 0.186. For B19, the “median log2 fold change” value was -0.0974.

As for B20, the “median log2 fold change” value came to 0.174. In the case of B21, the “median log2 fold change” value worked out at 0.199. As for B22, the figure is -0.0241; as for B23, 0.305.

As to B24, the “median log2 fold change” value is -0.134. On to B25, for which the “median log2 fold change” value was 0.201. As for B26, the figure is 0.11; as for B27, 0.182; as for B28, -0.0417. Then B29, with 0.147.
